Some of the results follow. The data describe in vitro nicking of single-stranded DNA by Rep domains (1 h at 37 °C, 3 µM enzyme); the outer parts of the 90-letter strands are left off. A value is the log2 ratio of uncut reads to the pool without enzyme; the lower, the more was cut; hits are not called. Shares of all reads are compared, so uncut sequences can rise above 0 when many others are cut.
How the values were obtained:
Assay in all cases: uncleaved DNA left, log2 of reads against the no-enzyme library (log2 ratio); higher = less cleavage (more negative = more Rep cleavage of the k-mer); sequences stand for … in CTCGTCCG…ACCGGAGA
[1] = test system: T1, Rep nickase domain of Muscovy duck circovirus
T1 sequence (residues 1-111, tag not shown): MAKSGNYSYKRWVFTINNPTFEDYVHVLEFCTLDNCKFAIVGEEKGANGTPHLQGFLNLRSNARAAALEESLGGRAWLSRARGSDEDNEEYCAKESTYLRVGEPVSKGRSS
Protocol: (§1)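 A pool of 90-nt single-stranded DNAs with seven random bases just before the constant AC of the nick site (name = the seven bases) was cut by 3 µM recombinant His6-SUMO-tagged Rep nickase domain (300 nM DNA, 50 mM HEPES pH 8.0, 50 mM NaCl, 1 mM MnCl2, 1 h, 37 °C, three replicates). Uncut DNA was amplified and sequenced.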

[2] = test system: T2, Rep nickase domain of banana bunchy top virus
T2 sequence (residues 1-94, tag not shown): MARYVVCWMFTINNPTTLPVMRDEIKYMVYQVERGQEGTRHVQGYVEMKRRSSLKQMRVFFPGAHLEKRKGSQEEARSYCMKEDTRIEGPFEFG
Protocol: as §1

[3] = test system: T3, Rep nickase domain of cabbage leaf curl virus
T3 sequence (residues 1-116, tag not shown): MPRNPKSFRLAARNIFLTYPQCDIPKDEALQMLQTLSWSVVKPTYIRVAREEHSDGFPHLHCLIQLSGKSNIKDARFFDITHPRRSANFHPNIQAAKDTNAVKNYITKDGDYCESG
Protocol: as §1

[4] = test system: T4, Rep nickase domain of chickpea chlorotic dwarf virus
T4 sequence (residues 1-124, tag not shown): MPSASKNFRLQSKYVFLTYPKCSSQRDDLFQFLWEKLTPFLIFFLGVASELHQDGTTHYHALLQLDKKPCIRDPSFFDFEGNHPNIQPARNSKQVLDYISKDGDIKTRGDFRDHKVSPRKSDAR
Protocol: as §1

[5] = test system: T5, Rep nickase domain of faba bean necrotic yellows virus
T5 sequence (residues 1-98, tag not shown): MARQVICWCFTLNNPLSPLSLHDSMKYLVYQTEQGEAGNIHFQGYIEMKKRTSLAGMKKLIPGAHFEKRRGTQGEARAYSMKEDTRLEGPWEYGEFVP
Protocol: as §1

[6] = test system: T6, Rep nickase domain of maize striate mosaic virus
T6 sequence (residues 1-117, tag not shown): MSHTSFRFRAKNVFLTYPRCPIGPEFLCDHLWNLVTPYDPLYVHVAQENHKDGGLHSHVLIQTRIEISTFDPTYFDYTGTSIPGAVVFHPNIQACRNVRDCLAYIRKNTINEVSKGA
Protocol: as §1

[7] = test system: T7, Rep nickase domain of porcine circovirus 2
T7 sequence (residues 2-116, tag not shown): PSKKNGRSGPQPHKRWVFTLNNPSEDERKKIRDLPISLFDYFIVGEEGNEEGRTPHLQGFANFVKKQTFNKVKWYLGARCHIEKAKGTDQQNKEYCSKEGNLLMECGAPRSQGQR
Protocol: as §1

[8] = test system: T8, Rep nickase domain of tomato yellow leaf curl virus
T8 sequence (residues 1-136, tag not shown): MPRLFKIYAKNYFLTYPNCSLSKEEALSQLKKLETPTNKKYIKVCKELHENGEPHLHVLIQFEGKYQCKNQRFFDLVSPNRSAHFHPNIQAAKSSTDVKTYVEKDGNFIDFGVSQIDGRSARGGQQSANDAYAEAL
Protocol: as §1

[9] = test system: T9, Rep nickase domain of wheat dwarf virus
T9 sequence (residues 1-137, tag not shown): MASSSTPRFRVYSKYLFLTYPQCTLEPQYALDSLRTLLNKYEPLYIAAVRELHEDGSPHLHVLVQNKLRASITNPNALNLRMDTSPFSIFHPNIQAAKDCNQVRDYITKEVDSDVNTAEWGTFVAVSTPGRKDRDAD
Protocol: as §1

Row | Sequence | uncleaved DNA left (log2) [1] | uncleaved DNA left (log2) [2] | uncleaved DNA left (log2) [3] | uncleaved DNA left (log2) [4] | uncleaved DNA left (log2) [5] | uncleaved DNA left (log2) [6] | uncleaved DNA left (log2) [7] | uncleaved DNA left (log2) [8] | uncleaved DNA left (log2) [9]
1 | GTTGTAG | 0.131 | 0.174 | 0.0429 | 0.281 | 0.0293 | -0.0413 | 0.152 | 0.0979 | 0.0627
2 | GTATCCG | 0.00474 | -0.0741 | -0.564 | -0.679 | -0.00668 | -0.909 | 0.141 | -0.089 | -0.059
3 | TCGGGTG | -0.00514 | -0.0337 | -0.0803 | 0.0281 | -0.0644 | 0.0294 | 0.219 | -0.00547 | -0.101
4 | GCTGCTG | -0.142 | -0.0618 | 0.12 | 0.801 | -0.0886 | 0.91 | 0.0989 | -0.113 | -0.128
5 | GTGCGCC | 0.0801 | 0.0368 | 0.19 | 0.477 | -0.0861 | 0.465 | 0.0575 | 0.0571 | 0.0509
6 | GTATAAA | 0.134 | 0.129 | 0.427 | 0.954 | 0.238 | 1.67 | 0.219 | 0.0842 | 0.277
7 | CTTAAGA | 0.0564 | 0.05 | -0.109 | -0.268 | 0.0272 | -0.996 | 0.211 | 0.0996 | 0.0992
8 | TGGTTCG | -0.172 | -0.187 | -0.961 | -0.121 | -0.16 | -0.979 | -0.0722 | -0.147 | -0.271
9 | AATCTAG | -0.0155 | 0.00143 | -0.732 | -0.64 | 0.0752 | -1.23 | 0.173 | 0.0104 | -0.0424
10 | CGGTGAG | -0.0184 | -0.0627 | -0.779 | -0.154 | -0.0624 | -0.614 | 0.083 | 0.148 | -0.0445
11 | GACGGCA | -0.0932 | -0.0354 | 0.273 | 0.443 | 0.0194 | 0.349 | -0.256 | -0.0467 | -0.0647
12 | CTGTCGC | -0.108 | -0.0677 | -0.753 | -0.719 | -0.074 | -1.08 | 0.0402 | -0.0411 | -0.221
13 | GAATATC | 0.0156 | -0.0316 | -2.39 | -2.09 | -0.0424 | -0.212 | -0.238 | 0.0577 | -0.486
14 | AGGGAAT | -0.0402 | -0.0872 | 0.176 | 1.71 | -0.243 | 1.8 | 0.132 | -0.169 | 0.0298
15 | CTATCCA | -0.0271 | 0.182 | 0.0437 | -0.968 | 0.136 | -0.371 | 0.0899 | 0.256 | 0.182
16 | TACATAC | -0.0294 | -0.111 | -0.153 | -1.08 | -0.0974 | -0.837 | 0.00184 | -0.00746 | -0.0227
17 | GTGACGG | -0.0079 | 0.0589 | 0.252 | 1.28 | -0.0346 | 1.91 | -0.00215 | -0.0519 | 0.00403
18 | TAGCCGA | -0.00594 | -0.132 | -0.592 | -0.821 | -0.0269 | -1.04 | -0.0605 | 0.0308 | -0.0574
19 | TACTAGA | -0.0968 | -0.152 | -0.333 | -1.09 | -0.0309 | -0.97 | -1.11 | -0.0174 | -0.0133
20 | ATCCTCC | 0.0939 | 0.102 | 0.178 | 0.297 | 0.11 | 0.749 | 0.143 | -0.0284 | 0.167
21 | ACTAGTG | -0.112 | -0.0423 | -0.777 | -0.303 | 0.0511 | -1.09 | 0.145 | 0.0679 | -0.138
22 | GAAAGAC | 0.0234 | 0.0183 | 0.437 | 1.2 | -0.17 | 1.32 | 0.189 | -0.0379 | 0.0775
23 | CCCAGAT | 0.0714 | 0.0835 | 0.0374 | 0.857 | -0.0461 | 1.21 | -0.102 | -0.109 | 0.0387
24 | ATGCGGC | -0.0559 | -0.00964 | -0.309 | -0.553 | -0.00308 | -0.946 | 0.146 | -0.0443 | -0.0669
25 | TAGTCGT | -0.233 | -0.571 | -0.781 | -1.49 | -0.313 | -1.14 | -3.55 | -0.0772 | -0.264
26 | CGCAGGT | -0.022 | -0.0515 | 0.265 | 0.922 | -0.0131 | 1.11 | 0.0763 | -0.00583 | 0.00881
27 | TCCCCAC | 0.00116 | -0.117 | 0.104 | -0.374 | 0.125 | -0.295 | -0.158 | 0.0713 | -0.0202
28 | CGAACGG | 0.0159 | 0.0545 | 0.193 | 0.899 | -0.0339 | 1.3 | 0.121 | -0.103 | 0.00562
29 | GAAGTAA | 0.154 | 0.145 | 0.296 | 0.464 | -0.0942 | 0.843 | 0.145 | 0.0516 | 0.0917
30 | GTCCAAG | 0.0582 | 0.242 | 0.268 | 0.612 | -0.00423 | 0.63 | 0.227 | 0.129 | 0.124

— the supplement of paper PMC7826260
